According to article PMC11584650, “An inhibitory segment within G-patch activators tunes Prp43-ATPase activity during ribosome assembly” (Nature Communications, 2024):
Results are given in words; binding and its absence hold for the method and conditions named. Some entries that bind do so weakly or less than the wild type. Sequences can lack the tags named with a protein.

Amino acid sequences for entries named in this document (tags omitted).
UniProt P53131: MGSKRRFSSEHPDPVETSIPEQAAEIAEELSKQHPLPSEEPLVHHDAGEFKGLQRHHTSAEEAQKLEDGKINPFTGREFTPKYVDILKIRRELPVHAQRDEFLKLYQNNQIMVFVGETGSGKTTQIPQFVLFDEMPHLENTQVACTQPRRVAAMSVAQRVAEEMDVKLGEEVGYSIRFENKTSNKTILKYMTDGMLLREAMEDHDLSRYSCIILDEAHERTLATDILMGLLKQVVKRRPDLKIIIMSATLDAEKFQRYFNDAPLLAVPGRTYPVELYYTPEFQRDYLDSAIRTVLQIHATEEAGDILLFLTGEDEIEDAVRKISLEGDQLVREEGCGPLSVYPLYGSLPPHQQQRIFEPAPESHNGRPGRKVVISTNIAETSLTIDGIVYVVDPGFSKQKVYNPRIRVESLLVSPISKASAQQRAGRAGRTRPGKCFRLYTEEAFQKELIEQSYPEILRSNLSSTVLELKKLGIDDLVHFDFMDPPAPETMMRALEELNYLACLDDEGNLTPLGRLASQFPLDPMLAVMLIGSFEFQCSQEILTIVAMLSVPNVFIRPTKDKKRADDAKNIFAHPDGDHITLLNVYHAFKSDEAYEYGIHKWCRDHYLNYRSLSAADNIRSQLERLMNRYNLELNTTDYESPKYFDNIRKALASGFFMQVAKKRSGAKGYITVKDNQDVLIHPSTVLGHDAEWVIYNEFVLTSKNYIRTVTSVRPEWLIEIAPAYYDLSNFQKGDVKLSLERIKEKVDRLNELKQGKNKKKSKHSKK

Target: Prp43 (yeast two-hybrid fusion) (S. cerevisiae) (UniProt P53131)
Experiment: two-hybrid; as the two-hybrid in NMY32, but in a modified NMY32 strain in which Pxr1^D at the genomic locus is replaced by CoV2^C (Pxr1^GM-CoV2^C strain)

B1: Pxr1^F126A (yeast two-hybrid fusion) (protein, UniProt P53335 1-271)
chain: MGLAATRTKQRFGLDPRNTAWSNDTSRFGHQFLEKFGWKPGMGLGLSPMNSNTSHIKVSIKDDNVGLGAKLKRKDKKDEFDNGECAGLDVFQRILGRLNGKESKISEELDTQRKQKIIDGKWGIHAVKGEVLASTWDPKTHKLRNYSNAKKRKREGDDSEDEDDDDKEDKDSDKKKHKKHKKHKKDKKKDKKDKKEHKKHKKEEKRLKKEKRAEKTKETKKTSKLKSSESASNIPDAVNTRLSVRSKWIKQKRAALMDSKALNEIFMITND
In the case of B1, the binding is reported as “binds”.
